# Measurements reported in patent publication US20160326231A1 (FUDAN UNIVERSITY SHANGHAI CANCER CENTER, published 2016).
# B1: CRIg-L-fH (other)
# chain: [letters of about 120 residues omitted]SGGGGSGGGGSGGGGEDCNELPPRRNTEILTGSWSDQTYPEGTQAIYKCRPGYRSLGNVIMVCRKGEWVALNPLRKCQKRPCGHPGDTPFGTFTLTGGNVFEYGVKAVYTCNEGYQLLGEINYRECDTDGWTNDIPICEVVKCLPVTAPENGKIVSSAMEPDREYHFGQAVRFVCNSGYKIEGDEEMHCSDDGFWSKEKPKCVEISCKSPDVINGSPISQKIIYKENERFQYKCNMGYEYSERGDAVCTESGWRPLPSCEEKSCDNPYIPNGDYSPLRIKHRTGDEITYQCRNGFYPATRGNTAKCTSTGWIPAPRCTLK
# notes: Expressed from pHLsec-CRIg-L-fH in 293FT cells and secreted; also called CRIg-(Gly4Ser)3-fH; recombinant protein CRIg-L-fH; not shown: His tag implied by Ni2+ column purification, NTA chip capture and anti-His detection
# Assays:
# Assay in all cases: SPR, Biacore T200, His-tagged fusion captured on NTA chip, C3 fragment as analyte
# C3c = target: T1, C3c (UniProt P01024 23-667; P01024 749-954; P01024 1321-1663, limits assumed)
# C3c, sequence (P01024 23-667 limits assumed, chain 1 of 3): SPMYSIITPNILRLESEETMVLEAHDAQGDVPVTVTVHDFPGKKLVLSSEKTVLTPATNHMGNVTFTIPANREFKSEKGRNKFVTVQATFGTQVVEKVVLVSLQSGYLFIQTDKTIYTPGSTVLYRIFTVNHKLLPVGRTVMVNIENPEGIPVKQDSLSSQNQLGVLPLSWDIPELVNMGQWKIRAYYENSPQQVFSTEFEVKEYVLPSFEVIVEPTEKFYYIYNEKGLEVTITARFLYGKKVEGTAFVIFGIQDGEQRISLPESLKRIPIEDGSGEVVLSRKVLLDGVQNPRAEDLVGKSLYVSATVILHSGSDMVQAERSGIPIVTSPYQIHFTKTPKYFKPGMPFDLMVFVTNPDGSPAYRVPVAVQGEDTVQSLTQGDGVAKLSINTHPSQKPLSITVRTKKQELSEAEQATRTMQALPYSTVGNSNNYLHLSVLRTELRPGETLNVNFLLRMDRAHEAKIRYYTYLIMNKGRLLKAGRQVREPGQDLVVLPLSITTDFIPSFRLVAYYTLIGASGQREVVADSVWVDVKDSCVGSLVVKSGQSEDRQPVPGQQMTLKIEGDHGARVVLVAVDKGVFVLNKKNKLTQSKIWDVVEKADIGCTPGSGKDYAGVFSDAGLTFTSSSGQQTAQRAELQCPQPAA
# C3c, sequence (P01024 749-954 limits assumed, chain 2 of 3): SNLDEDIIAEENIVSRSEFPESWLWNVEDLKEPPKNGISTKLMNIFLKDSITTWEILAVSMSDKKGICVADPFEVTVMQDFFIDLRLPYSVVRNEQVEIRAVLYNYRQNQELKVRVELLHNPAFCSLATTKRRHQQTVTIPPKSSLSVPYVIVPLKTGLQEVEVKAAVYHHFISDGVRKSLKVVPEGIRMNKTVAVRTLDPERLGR
# C3c, sequence (P01024 1321-1663 limits assumed, chain 3 of 3): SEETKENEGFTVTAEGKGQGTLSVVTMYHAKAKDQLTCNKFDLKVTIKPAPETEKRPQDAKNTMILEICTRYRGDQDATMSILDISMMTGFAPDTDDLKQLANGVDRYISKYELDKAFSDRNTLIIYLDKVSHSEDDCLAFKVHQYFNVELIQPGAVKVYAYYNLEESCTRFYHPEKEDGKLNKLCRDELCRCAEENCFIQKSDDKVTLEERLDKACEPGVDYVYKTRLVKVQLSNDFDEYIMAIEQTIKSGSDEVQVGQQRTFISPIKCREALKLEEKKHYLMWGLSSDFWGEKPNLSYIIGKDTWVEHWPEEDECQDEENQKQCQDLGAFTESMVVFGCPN
# T1 construct: domain: C3c; Bought protein
# Excerpt: (§1) Surface plasmon resonance (SPR) is a technology used for analyzing the biological macromolecule interactions, which can qualitatively judge whether there is interaction between two molecules or to compare the strength of the interactions between a molecule with a variety of molecules. It can also quantitatively determine the affinity parameter (equilibrium constant) and dynamics parameter (rate constant), even thermodynamic parameters (reaction enthalpies) in real time. This technology utilizes the principle of physical optics. In the study of the interaction between two molecules, a molecule is fixed on the surface of the sensor chip, the solution of another kind of molecule is flowed through the surface of the chip. The combination of the two molecules will change the refractive index of the sensor chip surface, which can be used to detect the interaction between the two molecules. The kinetics analysis and affinity determination of the complement inhibitor CRIg-fH with C3 enzymolysis products are performed by using BlAcore T200 based on the principle of SPR. The Series S Sensor NTA chip is chosen for the CRIg-fHHi label. The experiment method is as follows:
# (§2) (3) ligand coupling: the CRIg-fH fusion protein is diluted to 0.2 μg/ml ligand solution by HBS-N running buffer, inject the ligand solution once, at 25° C., the flow rate is 30 μl/min, the sustain time is 60 sec, the stability time is 30 sec.
# (§3) (8) the kinetic curve is simulated and the kinetic parameters (including association constant Ka, dissociation constant Kd and equilibrium dissociation constant KD) are determined by BIAcore T200 v2.02 software.
# iC3b = target: T2, iC3b (UniProt P01024 23-667; P01024 749-1303; P01024 1321-1663)
# iC3b, sequence (P01024 23-667 limits assumed, chain 1 of 3): as the sequence (P01024 23-667 limits assumed, chain 1 of 3) above
# iC3b, sequence (P01024 749-1303 limits assumed, chain 2 of 3): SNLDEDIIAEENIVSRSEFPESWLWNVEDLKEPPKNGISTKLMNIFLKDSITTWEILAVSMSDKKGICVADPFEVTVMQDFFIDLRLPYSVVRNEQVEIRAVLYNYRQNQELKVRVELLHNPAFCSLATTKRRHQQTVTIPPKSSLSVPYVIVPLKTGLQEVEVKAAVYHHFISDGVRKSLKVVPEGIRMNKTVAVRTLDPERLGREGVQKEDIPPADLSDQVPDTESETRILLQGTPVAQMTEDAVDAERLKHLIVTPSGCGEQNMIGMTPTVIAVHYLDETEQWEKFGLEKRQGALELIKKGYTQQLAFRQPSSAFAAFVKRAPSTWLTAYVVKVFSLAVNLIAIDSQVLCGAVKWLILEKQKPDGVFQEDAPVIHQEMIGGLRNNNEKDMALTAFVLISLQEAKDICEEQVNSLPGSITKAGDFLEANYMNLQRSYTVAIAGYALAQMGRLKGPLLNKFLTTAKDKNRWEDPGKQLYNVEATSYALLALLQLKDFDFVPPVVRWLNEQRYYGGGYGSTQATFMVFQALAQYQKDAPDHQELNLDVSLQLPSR
# iC3b, sequence (P01024 1321-1663 limits assumed, chain 3 of 3): as the sequence (P01024 1321-1663 limits assumed, chain 3 of 3) above
# T2 construct: domain: iC3b; Bought protein
# Excerpt: as §1, §2, §3
# C3b = target: T3, C3b (UniProt P01024 23-667; P01024 partial chain)
# C3b, sequence (P01024 23-667 limits assumed, chain 1 of 2): as the sequence (P01024 23-667 limits assumed, chain 1 of 3) above
# C3b, sequence (P01024 749-1663 limits assumed, chain 2 of 2): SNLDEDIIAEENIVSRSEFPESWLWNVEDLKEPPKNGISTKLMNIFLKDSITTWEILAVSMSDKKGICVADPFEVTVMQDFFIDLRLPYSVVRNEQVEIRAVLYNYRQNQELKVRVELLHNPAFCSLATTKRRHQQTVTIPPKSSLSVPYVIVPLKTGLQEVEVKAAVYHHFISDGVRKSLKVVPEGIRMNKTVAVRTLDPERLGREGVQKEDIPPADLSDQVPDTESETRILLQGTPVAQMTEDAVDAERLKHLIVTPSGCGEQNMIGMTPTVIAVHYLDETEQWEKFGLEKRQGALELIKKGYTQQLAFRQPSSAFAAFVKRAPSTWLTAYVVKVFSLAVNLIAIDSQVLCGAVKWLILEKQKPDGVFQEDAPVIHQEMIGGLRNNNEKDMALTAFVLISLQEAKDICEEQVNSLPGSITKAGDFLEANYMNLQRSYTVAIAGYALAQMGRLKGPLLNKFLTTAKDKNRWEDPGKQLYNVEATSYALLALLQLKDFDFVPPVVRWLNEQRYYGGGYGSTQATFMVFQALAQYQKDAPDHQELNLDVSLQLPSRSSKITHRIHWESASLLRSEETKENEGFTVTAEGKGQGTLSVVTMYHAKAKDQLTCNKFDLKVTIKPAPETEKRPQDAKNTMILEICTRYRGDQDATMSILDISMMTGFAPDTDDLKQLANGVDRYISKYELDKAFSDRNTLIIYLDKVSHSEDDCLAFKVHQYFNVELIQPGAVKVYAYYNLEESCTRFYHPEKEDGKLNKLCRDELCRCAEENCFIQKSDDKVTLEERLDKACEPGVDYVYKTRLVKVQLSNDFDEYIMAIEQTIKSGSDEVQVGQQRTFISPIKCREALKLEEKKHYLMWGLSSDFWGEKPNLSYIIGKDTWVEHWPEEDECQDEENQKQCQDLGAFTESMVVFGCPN
# T3 construct: domain: C3b; Bought protein; also called C3 enzymolysis product
# Excerpt: as §1, §2, §3
binder,measurement,setting,value
B1,Kd,C3c,2490 nM
same,koff,C3c,0.00615 s⁻¹
same,kon,C3c,2480 M⁻¹ s⁻¹
same,Kd,iC3b,3510 nM
same,koff,iC3b,0.00362 s⁻¹
same,Kd,C3b,234 nM
same,koff,C3b,0.00375 s⁻¹
same,kon,C3b,16500 M⁻¹ s⁻¹
